Results as given in a collection of fitness landscapes (doi:10.1016/j.celrep.2020.107928).
In all, about 81,000 sequences were measured (“one-hybrid fitness for binding parS DNA”: median about -0.17, highest 2% from about 0.51 on). Some of the results follow.

B1: Caulobacter ParB omega fusion; a variant is named by its letters at X, in order, B8GW30 (parent)
chain: MESVVVGEPGMSEGRRGLGRGLSALLGEVDAAPAQAPGEQLGGSREAPIEILQRNPDQPRRTFREEDLEDLSNSIREKGVLQPILVRPSPDTAGEYQIVAGERAWRAAQRAGLKTVPIMVRELDDLAVLEIGIIENVQRADLNVLEEALSYKVLMEKFERTQENIAQTIGKSXSHVANXMRLLXLPDEVQSYLVSGELTAXHARAIAAAADPVALAKQIIEGGLSVRETEALARKAPNLSAGKSKGGRPPRVKDTDTQALESDLSSVLGLDVSIDHRGSTGTLTITYATLEQLDDLCNRLTRGI

Variants of: B1
Test: one-hybrid fitness for binding parS DNA (scaled: cognate 1, non-cognate 0); higher = stronger binding
Conditions: with parS DNA site
Outline: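 On M9-minus-histidine containing 0.1 mM IPTG and 5 mM 3-AT, E. coli USO cells with a HIS3 reporter, site 19 bp from the promoter, grew 48 hours at 37°C to select Caulobacter ParB libraries randomised at four specificity codons. Plasmids from before and after were Illumina-sequenced, with three replicate libraries pooled and variants under 10 reads left out. Fitness is the log change in variant-to-wild-type read ratio, rescaled against cognate and non-cognate.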

one-hybrid fitness for binding parS DNA, 1:
RLTC

one-hybrid fitness for binding parS DNA, 0.885:
RVMT

one-hybrid fitness for binding parS DNA, 0.326:
RFSM

one-hybrid fitness for binding parS DNA, 0.68:
RWGS

one-hybrid fitness for binding parS DNA, 0.284:
RADM

one-hybrid fitness for binding parS DNA, 0.689:
RRHN

one-hybrid fitness for binding parS DNA, 0.42:
RQIA

one-hybrid fitness for binding parS DNA, 0.325:
RNMY

one-hybrid fitness for binding parS DNA, 0.57:
RQHA

one-hybrid fitness for binding parS DNA, 0.961:
RLLT

one-hybrid fitness for binding parS DNA, 0.99:
RAGG

one-hybrid fitness for binding parS DNA, 0.286:
RSKW

one-hybrid fitness for binding parS DNA, ≤ 0.2:
TSNW
QCDW
PRYQ
YIST
ADYG
YQRH
LRDW
PVLD
PVRM
YLSR
MMTT
PLTR
WNND
SVVD
MQSR
SLTR
QPLQ
KTWQ
PQHV
HQYW
IPQC
AKRV
SLEV
SSKR
LVVS
PHES
VQTT
LPNC
ACRR
FAAL
PMTK
EATD
IEKP
SNDG
RGIV
PLWY
HNPA
LTNS
MIHF
QSTS
DTQP
YDRH
NGPP
AWRA
EAGV
RDLR
RIRI
AYFF
PKSN
WYRS
TKCC
QPFW
PVTI
DERR
HYPE
GVYA
CMQL
RHDR
LLFP
NTSV
DSSI
PADF
GRKH
GAEI
REKE
MNMD
QILM
AEPC
QYHQ
AMGK
RQPH
KATD
YHVS
PANA
KISI
FRDS
KVTC
IMFR
EPSD
IVLV
GHWC
QCFY
SFKC
CKSI
NHYC
GNPT
MTWS
AQQR
LEAG
SRQL
DQSY
PAPY
MMSN
NVPT
SAAI
EAHV
HPAF
CMKS
IVSA
TPQV
KANR
AAWN
NNPT
SNTI
WKIY
WTAG
AVDH
QACV
TYFH
EPPW
AIEG
GSWC
AAAH
VPFG
RKPL
AKVG
FRRM
CAAR
SVPS
YRHK
AFLN
RRYE
PPRG
NNFL
CRNT
WGLS
NNLW
QPQG
QYMG
TGRK
RYLP
FEVR
GMYR
HWES
QKQY
YNYT
NSER
TPII
WMAG
HKGV
KHKV
TGKN
CGNR
RYNI
QSLD
TCWS
TMES
ALQL
RDQT
PNSP
EQAR
KESR
KSHC
KRSG
FWLF
RNYQ
AAFN
IHYC
AWVS
YALT
PSWG
MLKG
EKQG
NLSL
GPKF
CTKV
LMDN
TAMK
REMF
KRVF
AKIQ
FFLV
IQWS
DDYT
APPY
PHRY
TIRC
GSEV
DSKT
IERG
DHPE
TPRT
IEPP
EYKR
VQKC
DKDC
QRIM
ISRC
GMVD
PVHN
KQPW
SSQG
YPNM
SFQL
VMNW
CREV
PFFG
FMPS
QYYR
HYGG
WLHL
ASLH
YCKG
WQLR
PHIR
ARDV
FGKG
KYRT
MQHS
AYIR
QVCY
NELD
GVKS
KPQR
EQIW
DLGR
ISFC
FMTS
DPKL
LVLT
KLMW
VLMD
MHHT
LYTI
ICQT
VWKA
EQHC
ACGK
TNVM
THIS
DEKR
QWLS
NETR
LELC
QNPY
RISV
ILDV
YAAR
PATL
YWII
GKDL
TKTW
PKDK
IIHE
TILG
KQLT
DIPL
TCPM
LRAA
IDWT
RPCW
RCAH
AQLM
WFLS
HHLG
PIFS
STPG
LHHA
AANY
EDGR
PPLT
SEDG
LHGS
SENN
VKPI
QAPW
DYVY
SLRL
LCWF
PPQS
PFFV
AART
FLTG
IRNN
APSD
QTVI
PTFM
VDSL
MTQR
CGNW
FVTS
HGPS
ELLC
VVPE
PVYD
LLRA
ELRQ
GECF
CERA
QMHN
QSPG
SHSS

one-hybrid fitness for binding parS DNA, 0.828:
RRIA

one-hybrid fitness for binding parS DNA, 0.301:
RWEA
